# The supplement of paper PMC3334620
# Over roughly 33,000 sequences, “E-score (-0.5 to 0.5)” has its median near -0.054; the highest 2% begin near 0.39. Some of the results follow.
# Target: Ylr278c (UniProt Q05854)
# Assay: PBM E-score (8-mer binding enrichment) (E-score (-0.5 to 0.5)); higher = stronger / more preferred TF binding; most listed sequences are background and not binding sites
# Conditions: protein concentration: 200 nM; construct: GST-DNA-binding domain
# How it was run: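 For each ungapped eight-base word taken together with its reverse complement, the Universal PBM Analysis Suite assigned an E-score. Binding data came from GST-tagged yeast transcription factors, applied at about 100-200 nM, on universal all-10-mer Agilent arrays made double-stranded by primer extension. Fluorescent anti-GST marked bound protein, and scans were normalised with masliner.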
row,Sequence,PBM E-score
1,CAGTCTTC,-0.211
2,TAGTTACA,-0.124
3,CACCCGGC,0.185
4,GTCCGGAC,0.455
5,CTCGCCAG,-0.203
6,GTTCCAAC,0.0696
7,ACTCGCTG,-0.0391
8,ACCTCAGG,-0.265
9,ACCAATCG,0.132
10,AGAATGAC,-0.134
11,CACTCGAA,-0.208
12,CTCTACCA,-0.123
13,AGTAGTGA,-0.125
14,AGAGGGAT,-0.341
15,AGGGAGGG,0.0694
16,GGCTATCA,-0.054
17,GCGGACAA,0.398
18,AAGAGTTG,-0.129
19,AGTATGCA,-0.151
20,GGCGGTGA,0.127
21,ACCTTTAC,-0.0851
22,CGCGCCCA,0.146
23,TAACTTAA,0.0318
24,TATCAACA,-0.194
25,ACGGCTAA,0.0492

row,Sequence,PBM E-score
1,GCAGTCGA,-0.0263
2,AACAGTGC,-0.078
3,CTTAATAA,0.141
4,GAGACAAA,-0.0652
5,CACGAGTG,-0.18
6,GAAATAAC,0.0248
7,ACAGAAAG,-0.0741
8,AGAGTGTC,0.0202
9,ATATGCAT,-0.0843
10,CAGGTCCC,-0.0624
11,AGCACATG,-0.0492
12,GTATAGTA,0.119
13,CTCAAAGA,-0.2
14,AATCTCGT,-0.11
15,CCTCACAA,0.0465
16,TAAAAATA,-0.116
17,ATGAAGTA,-0.15
18,AGTTCAGC,-0.145
19,CGATTGGA,-0.055
20,GTCGTCAA,-0.0942
21,GAATATAC,0.223
22,AACAACAG,-0.0312
23,CAAGGACA,-0.204
24,ACTATAAA,-0.0305
25,GGGCACTA,-0.187

row,Sequence,PBM E-score
1,ATATCTTG,-0.21
2,AATCGACG,-0.0544
3,CTGGTAGC,-0.131
4,CATAGTCG,-0.106
5,CGTATTGA,-0.17
6,AAGAATGC,-0.00543
7,ACCCTCCG,0.328
8,ACCGGACG,0.369
9,AGCGCTTG,0.0403
10,GTGGTAAC,-0.0132
11,CGTCAAAA,-0.00464
12,ATATGGAA,-0.0385
13,ATGTGTGC,-0.152
14,CTTGCGGA,0.291
15,TAGTGCAA,-0.114
16,CATAACGA,-0.131
17,CGCAATAA,0.198
18,ATCTAAGA,-0.231
19,ACGTAACA,-0.141
20,GGACCGAA,0.206
21,AAGGGAAC,-0.163
22,ACGGCCGT,0.185
23,ATTACAGG,0.133
24,ATGACAGA,-0.256
25,ACATATAA,-0.00381

row,Sequence,PBM E-score
1,GTTAGCCA,0.0392
2,AACTACGT,-0.114
3,GCCGGCAC,0.304
4,GGATGCAC,-0.0646
5,AGTTGGTC,0.0345
6,ATTCGAAA,0.0774
7,GGGGCCAC,-0.0168
8,ACGCTCGG,0.295
9,AACGCCCT,-0.182
10,CGGAGGAG,0.417
11,CAACAGCG,-0.069
12,CAAATCGC,0.0116
13,GAGGGACC,-0.222
14,CTTAAGTC,-0.0372
15,CAAGGAGA,-0.105
16,AAAACGAT,-0.0652
17,CCGAACCG,0.367
18,AGCGACAT,-0.166
19,ATTATACA,0.0193
20,CCTCCAAC,-0.212
21,ACGATATA,-0.127
22,CACAGAAG,-0.2
23,TCATCCGA,0.301
24,TAGCAGCA,-0.132
25,CCGACGCG,0.394

row,Sequence,PBM E-score
1,ACATGCTC,-0.0918
2,TAATGGGA,-0.256
3,ATATAAGC,-0.127
4,CCGTGCCA,0.0908
5,CACGAAAC,-0.0194
6,GGCAAAAC,0.0705
7,GCAATACC,0.0113
8,GCGACCTA,-0.134
9,AGGACAAC,-0.163
10,CCTAAGCG,0.0364
11,GCTGGTGA,-0.0569
12,ATAAAAGG,-0.206
13,GAAATTTA,-0.00842
14,GGAAAGAC,0.0636
15,AGTCCAAG,-0.236
16,TCTATTAA,-0.177
17,ACGACTAC,-0.281
18,GCTGTGAC,-0.127
19,TCTGTTCA,-0.233
20,CTATAGGA,-0.218
21,ATCCTCCA,-0.301
22,CAACAGTG,0.0389
23,ACACCCCA,-0.171
24,CGATTGAG,-0.0515
25,ACTATGAG,-0.108

row,Sequence,PBM E-score
1,GAATTATA,0.0291
2,CTACTACA,0.00999
3,AATGTCGA,-0.0976
4,GGAAGAAC,0.235
5,CGACGACA,-0.145
6,AGGAGTCA,-0.121
7,CGTTCGAG,-0.21
8,ACCACGGC,0.0785
9,CAATTGTC,-0.0713
10,ACACTACG,0.064
11,GACTTATA,0.058
12,GCATTGTA,-0.0424
13,ATCTCGGA,0.406
14,AGTGTCGA,-0.187
15,CGGGCTTC,0.366
16,ACAGGAAC,-0.211
17,TTCATAAA,-0.12
18,GGCGACGA,-0.172
19,AAATGCGA,0.087
20,ACGTGGCA,-0.2
21,CCGCCTCG,0.187
22,AGGTTGTA,-0.122
23,ACCCACGG,-0.0126
24,GCGCGGAC,0.294
25,GTAATTTA,-0.0255

row,Sequence,PBM E-score
1,CCCTGGTC,-0.177
2,CCCAATGC,-0.149
3,ACCTGAAT,-0.0345
4,ACCAAAGG,-0.224
5,CGTTTTAA,-0.117
6,CTAGATTC,-0.165
7,CTAACTCA,-0.226
8,ATCGAACA,-0.0938
9,CGGATGGC,0.135
10,ACATTTTA,-0.00659
11,GCGTTCGA,-0.11
12,ATTCGGGC,0.18
13,CTACTCAC,-0.0555
14,ACTCCACA,-0.0234
15,AACGGTTG,-0.172
16,AGACGGAA,0.238
17,ACGAATTA,-0.126
18,TCCCTAAA,-0.0873
19,GAGTATAA,0.0928
20,AAAGTGAA,0.0105
21,AAGTGACT,-0.201
22,CCTGGTGA,-0.11
